According to the supplement of paper PMC7266297:
Counter-ions that a name gives are not always drawn. Some of the results follow. Single values are uncertain, as repeats are few or missing.

Assays:
KB-3-1 = experiment: growth inhibition relative to DMSO control (SRB); cervical cancer cells: KB-3-1 is the parent and KB-V1 overexpresses MDR1; SRB is the sulforhodamine B stain; higher = more growth inhibition; conditions: 1 µM; 72 h
KB-V1 = experiment: as above; conditions: 1 µM; 72 h
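Further: Read-out is SRB optical density at 490 nm, with the control being wells given 0.5% DMSO vehicle, and compound added one day after cells were plated.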

Compound: CNC[C@H](O)c1cccc(O)c1 [Phenylephrine HCl]
- growth inhibition (KB-3-1): 26.9%
- growth inhibition (KB-V1): < 0%

Compound: CC(C)C[C@H](NC(=O)[C@H](CCc1ccccc1)NC(=O)CN1CCOCC1)C(=O)N[C@@H](Cc1ccccc1)C(=O)N[C@@H](CC(C)C)C(=O)[C@@]1(C)CO1 [Carfilzomib (PR-171)]
- growth inhibition (KB-3-1): 94.1%
- growth inhibition (KB-V1): 89.5%

Compound: CCOC(=O)[C@H](CCc1ccccc1)N[C@@H](C)C(=O)N1C(=O)N(C)C[C@H]1C(=O)O [Imidapril HCl]
- growth inhibition (KB-3-1): < 0%
- growth inhibition (KB-V1): 25.2%

Compound: O=c1oc2cc(O)ccc2s1 [Tioxolone]
- growth inhibition (KB-3-1): 30.4%
- growth inhibition (KB-V1): 11.7%

Compound: CCCNC(=O)Nc1ccc(Oc2ncnc3cc(OC)c(OC)cc23)cc1Cl
- growth inhibition (KB-3-1): 24.8%
- growth inhibition (KB-V1): 11.3%

Compound: CO[C@H]1C[C@@H]2CC[C@@H](C)[C@@](O)(O2)C(=O)C(=O)N2CCCC[C@H]2C(=O)O[C@H]([C@H](C)C[C@@H]2CC[C@@H](OC(=O)C(C)(CO)CO)[C@H](OC)C2)CC(=O)[C@H](C)/C=C(\C)[C@@H](O)[C@@H](OC)C(=O)[C@H](C)C[C@H](C)/C=C/C=C/C=C/1C
- growth inhibition (KB-3-1): 64.7%
- growth inhibition (KB-V1): 27.5%

Compound: CC(=O)NS(=O)(=O)c1ccc(N)cc1 [Sulfacetamide Sodium]
- growth inhibition (KB-3-1): 20%
- growth inhibition (KB-V1): 1.41%

Compound: CCOc1nc2cccc(C(=O)O)c2n1Cc1ccc(-c2ccccc2-c2noc(=O)[nH]2)cc1 [Azilsartan]
- growth inhibition (KB-3-1): < 0%
- growth inhibition (KB-V1): 0.244%

Compound: Cc1cc(C)c(CNC(=O)c2cc(-c3ccc(CN4CCOCC4)cc3)cc3c2cnn3C2CCCC2)c(=O)[nH]1
- growth inhibition (KB-3-1): 15.3%
- growth inhibition (KB-V1): 24.6%

Compound: Cc1cc(OCCCS(C)(=O)=O)cc(C)c1-c1cccc(COc2ccc3c(c2)OC[C@H]3CC(=O)O)c1
- growth inhibition (KB-3-1): < 0%
- growth inhibition (KB-V1): < 0%

Compound: CC(C)C(=O)Nc1ccc([N+](=O)[O-])c(C(F)(F)F)c1 [Flutamide]
- growth inhibition (KB-3-1): 47.5%
- growth inhibition (KB-V1): 20.3%

Compound: CC[C@@]1(O)C(=O)OCc2c1cc1n(c2=O)Cc2cc3c(CN(C)C)c(O)ccc3nc2-1 [Topotecan HCl]
- growth inhibition (KB-3-1): 67.7%
- growth inhibition (KB-V1): 54.1%

Compound: O=C(/C=C/c1ccc(O)c(O)c1)c1ccc(O)cc1O [Butein]
- growth inhibition (KB-3-1): 48.8%
- growth inhibition (KB-V1): < 0%

Compound: O=C(CCCCCCNC(=O)c1cnc(N(c2ccccc2)c2ccccc2)nc1)NO [Rocilinostat (ACY-1215)]
- growth inhibition (KB-3-1): 52.4%
- growth inhibition (KB-V1): 9.26%

Compound: CC(C)NCC(O)COc1cccc2ccccc12 (stereo not drawn) [Propranolol HCl]
- growth inhibition (KB-3-1): 21.8%
- growth inhibition (KB-V1): 0.282%

Compound: CCOc1cc(CC(=O)N[C@@H](CC(C)C)c2ccccc2N2CCCCC2)ccc1C(=O)O [Repaglinide]
- growth inhibition (KB-3-1): 9.03%
- growth inhibition (KB-V1): 42.2%

Compound: Clc1ccc2nsnc2c1NC1=NCCN1 [Tizanidine HCl]
- growth inhibition (KB-3-1): 12.4%
- growth inhibition (KB-V1): 35.2%

Compound: CC(C)C(=O)Oc1ccc(CO)cc1[C@H](CCN(C(C)C)C(C)C)c1ccccc1 [Fesoterodine Fumarate]
- growth inhibition (KB-3-1): < 0%
- growth inhibition (KB-V1): 51.4%

Compound: NC12CC3CC(CC(C3)C1)C2 [Amantadine HCl]
- growth inhibition (KB-3-1): 28.7%
- growth inhibition (KB-V1): 13.8%

Compound: Cc1cc(C(=O)NOCCO)c(Nc2ccc(I)cc2F)n(C)c1=O
- growth inhibition (KB-3-1): < 0%
- growth inhibition (KB-V1): 43.9%

Compound: CC(C)N(CCCNC(=O)Nc1ccc(C(C)(C)C)cc1)C[C@H]1O[C@@H](n2cc(Br)c3c(N)ncnc32)[C@H](O)[C@@H]1O
- growth inhibition (KB-3-1): 28.9%
- growth inhibition (KB-V1): 5.93%

Compound: CC1CCN(CC[C@H]2CCCN2S(=O)(=O)c2cccc(O)c2)CC1
- growth inhibition (KB-3-1): 43%
- growth inhibition (KB-V1): 9.13%

Compound: CN1CCC(=C2c3ccccc3CCc3cccnc32)CC1 [Azatadine dimaleate]
- growth inhibition (KB-3-1): < 0%
- growth inhibition (KB-V1): 3.17%

Compound: O=C1NC(=O)/C(=C/c2ccc3nccc(-c4ccncc4)c3c2)S1
- growth inhibition (KB-3-1): 75.1%
- growth inhibition (KB-V1): 77.4%

Compound: COc1cc(N2CCC(N)CC2)ccc1Nc1ncc(Cl)c(-c2c[nH]c3ccccc23)n1
- growth inhibition (KB-3-1): 32%
- growth inhibition (KB-V1): 41.4%

Compound: Cc1cc(Nc2cc(N3CCN(C)CC3)nc(Sc3ccc(NC(=O)C4CC4)cc3)n2)n[nH]1 [VX-680 (Tozasertib, MK-0457)]
- growth inhibition (KB-3-1): 67.4%
- growth inhibition (KB-V1): 71%

Compound: CCc1cc2c(cc1CC)CC(NC[C@H](O)c1ccc(O)c3[nH]c(=O)ccc13)C2 [Indacaterol Maleate]
- growth inhibition (KB-3-1): 9.55%
- growth inhibition (KB-V1): 22.4%

Compound: N=C(N)N/N=C/c1c(Cl)cccc1Cl [Guanabenz Acetate]
- growth inhibition (KB-3-1): 25.6%
- growth inhibition (KB-V1): 13.1%

Compound: CC(C)c1nc(CN(C)C(=O)N[C@@H](CCN2CCOCC2)C(=O)N[C@H](CC[C@H](Cc2ccccc2)NC(=O)OCc2cncs2)Cc2ccccc2)cs1 [Cobicistat (GS-9350)]
- growth inhibition (KB-3-1): 3.97%
- growth inhibition (KB-V1): 0.515%

Compound: O=C1CCc2cc(OCCCCc3nnnn3C3CCCCC3)ccc2N1 [Cilostazol]
- growth inhibition (KB-3-1): 11%
- growth inhibition (KB-V1): 32.9%

Compound: CC1(C)CC(=O)c2c(C(F)(F)F)nn(-c3ccc(C(N)=O)c(N[C@H]4CC[C@H](O)CC4)c3)c2C1
- growth inhibition (KB-3-1): 85.2%
- growth inhibition (KB-V1): 53.2%

Compound: CCCCC1=NC2(CCCC2)C(=O)N1Cc1ccc(-c2ccccc2-c2nnn[nH]2)cc1 [Irbesartan]
- growth inhibition (KB-3-1): 30.9%
- growth inhibition (KB-V1): 20.9%

Compound: CCc1cncnc1N1CCN(Cc2nc3ccc(C(F)(F)F)cc3[nH]2)CC1
- growth inhibition (KB-3-1): 87.9%
- growth inhibition (KB-V1): 47.7%

Compound: CC(C)n1nc(-c2ccc3oc(N)nc3c2)c2c(N)ncnc21
- growth inhibition (KB-3-1): 80.2%
- growth inhibition (KB-V1): 85.2%

Compound: Cn1cc(-c2cnn3c(N)c(Br)c([C@@H]4CCCNC4)nc23)cn1
- growth inhibition (KB-3-1): < 0%
- growth inhibition (KB-V1): < 0%

Compound: O=C(/C=C/c1cccc(S(=O)(=O)Nc2ccccc2)c1)NO [Belinostat (PXD101)]
- growth inhibition (KB-3-1): 83.2%
- growth inhibition (KB-V1): 85.8%

Compound: CN1CCN(c2ccc3nc(-c4c(N)c5c(F)cccc5[nH]c4=O)[nH]c3c2)CC1 [Dovitinib (TKI-258, CHIR-258)]
- growth inhibition (KB-3-1): 74.1%
- growth inhibition (KB-V1): 71.8%

Compound: COC(=O)N[C@H](C(=O)N[C@@H](Cc1ccccc1)[C@@H](O)CN(Cc1ccc(-c2ccccn2)cc1)NC(=O)[C@@H](NC(=O)OC)C(C)(C)C)C(C)(C)C [Atazanavir Sulfate]
- growth inhibition (KB-3-1): 16.1%
- growth inhibition (KB-V1): 35.2%

Compound: OC(CN1CCN(c2cccc(Cl)c2)CC1)C(c1ccccc1)c1ccccc1 (stereo not drawn)
- growth inhibition (KB-3-1): < 0%
- growth inhibition (KB-V1): 1.56%

Compound: C[C@@]1(C(=O)Nc2ccc(F)nc2)CCCN1c1nc(Nc2cc(C3CC3)n[nH]2)c2cccn2n1
- growth inhibition (KB-3-1): 92.9%
- growth inhibition (KB-V1): 78.6%

Compound: Cc1[nH]c2ccccc2c1CCNCc1ccc(/C=C/C(=O)NO)cc1 [Panobinostat (LBH589)]
- growth inhibition (KB-3-1): 94.9%
- growth inhibition (KB-V1): 99.4%

Compound: CC(C)[C@H](O)C(=O)N[C@@H](C)C(=O)N[C@@H]1C(=O)N(C)CCc2ccccc21
- growth inhibition (KB-3-1): 29.3%
- growth inhibition (KB-V1): 15.3%

Compound: c1ccc2c(CCNc3ccc(Nc4ccncc4)cc3)c[nH]c2c1
- growth inhibition (KB-3-1): 86%
- growth inhibition (KB-V1): 57.4%

Compound: CC(=O)/N=c1/sc(S(N)(=O)=O)nn1C [Methazolamide]
- growth inhibition (KB-3-1): 14.1%
- growth inhibition (KB-V1): 14%

Compound: CC[C@H]1OC(=O)[C@H](C)[C@@H](O[C@H]2C[C@@](C)(OC)[C@@H](O)[C@H](C)O2)[C@H](C)[C@@H](O[C@@H]2O[C@H](C)C[C@H](N(C)C)[C@H]2O)[C@](C)(O)C[C@@H](C)CN(C)[C@H](C)[C@@H](O)[C@]1(C)O [Azithromycin]
- growth inhibition (KB-3-1): 49.8%
- growth inhibition (KB-V1): 27%

Compound: CCCCCCCN(CC)CCCC(O)c1ccc(NS(C)(=O)=O)cc1 (stereo not drawn) [Ibutilide Fumarate]
- growth inhibition (KB-3-1): < 0%
- growth inhibition (KB-V1): < 0%

Compound: CC(COc1ccccc1)N(CCCl)Cc1ccccc1 (stereo not drawn) [Phenoxybenzamine HCl]
- growth inhibition (KB-3-1): 29.6%
- growth inhibition (KB-V1): 11.7%

Compound: C1=N/C2=N/c3ccc(OCCN4CCCC4)c(c3)COC/C=C/COCc3cccc(c3)C(=C1)N2 [Pacritinib (SB1518)]
- growth inhibition (KB-3-1): 99.3%
- growth inhibition (KB-V1): 95.5%

Compound: Cc1cc(C)c(/C=C2\C(=O)Nc3ccccc32)[nH]1 [Semaxanib (SU5416)]
- growth inhibition (KB-3-1): 28%
- growth inhibition (KB-V1): 13.4%

Compound: C[C@@H](Oc1cc(-n2cnc3ccc(CN4CCN(C)CC4)cc32)sc1C(N)=O)c1ccccc1C(F)(F)F
- growth inhibition (KB-3-1): 57.7%
- growth inhibition (KB-V1): 88.8%

Compound: COc1cccc2cc(-c3nc([C@H]4CC[C@H](C(=O)O)CC4)n4ncnc(N)c34)[nH]c12
- growth inhibition (KB-3-1): 16.9%
- growth inhibition (KB-V1): 27.4%

Compound: CNC(=O)[C@H](Cc1c[nH]c2ccccc12)NC(=O)[C@@H](CC(=O)NO)CC(C)C [Ilomastat (GM6001, Galardin)]
- growth inhibition (KB-3-1): 9.29%
- growth inhibition (KB-V1): < 0%

Compound: Cn1cncc1[C@@](N)(c1ccc(Cl)cc1)c1ccc2c(c1)c(-c1cccc(Cl)c1)cc(=O)n2C [Tipifarnib]
- growth inhibition (KB-3-1): 56.2%
- growth inhibition (KB-V1): 68.7%

Compound: O=C1CN2Cc3c(ccc(Cl)c3Cl)N=C2N1 [Anagrelide HCl]
- growth inhibition (KB-3-1): < 0%
- growth inhibition (KB-V1): 88.3%
